# Measurements taken from PubChem BioAssay (NCATS).
# The other results are listed elsewhere or left out. Further columns of the screen follow, without active or inactive calls. For some of these results: The list favours compounds with an active or inconclusive main result. For some of these results: The note in brackets gives the kind of curve behind each potency; many fits are weak.
# Key:
# [1] = target: Histamine N-methyltransferase (Homo sapiens) (UniProt P50135); assay: Confirmatory Screen for Target Class Profiling of Small Molecule Inhibitors of Methyltransferases (AID 1745852); settings: MTase-Glo luminescence, SAH detection, recombinant enzyme; measured here: HNMT inhibition potency;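 further: inhibitor potency for blocking SAH production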
# UniProt P50135, sequence (P50135 whole entry, looked up): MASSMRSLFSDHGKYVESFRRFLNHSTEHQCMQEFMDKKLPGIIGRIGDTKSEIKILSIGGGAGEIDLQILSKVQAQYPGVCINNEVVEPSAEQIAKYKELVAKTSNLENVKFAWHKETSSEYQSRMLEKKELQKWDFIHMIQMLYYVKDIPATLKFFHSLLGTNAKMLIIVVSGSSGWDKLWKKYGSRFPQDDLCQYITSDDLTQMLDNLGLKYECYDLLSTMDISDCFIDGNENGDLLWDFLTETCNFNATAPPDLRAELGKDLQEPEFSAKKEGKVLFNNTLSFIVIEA
# [2] = qHTS Assay for Modulators of Human Peripheral Myelin Protein 22 (PMP22) Expression/Activity (AID 1967); settings: Cell-based PMP22 reporter, dual-color luciferase ratio
# Procedure, shortened: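 Mouse MSC80 Schwann line, Pmp22 promoter–CBG68 reporter, EF-alpha–CBR internal control. 24h compound exposure, 37 °C/5% CO2, DMEM + 10% FBS. Readout: corrected green/red luminescence ratio, normalized to untreated cells; concentration-response curves fitted and classified.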
# [3] = target: Catechol O-methyltransferase (Homo sapiens) (UniProt P21964); assay: Confirmatory Screen for Target Class Profiling of Small Molecule Inhibitors of Methyltransferases (AID 1745852); settings: MTase-Glo luminescence, SAH detection, recombinant enzyme; measured here: COMT inhibition potency;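 further: inhibitor potency for blocking SAH production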
# UniProt P21964, sequence (P21964 whole entry, looked up): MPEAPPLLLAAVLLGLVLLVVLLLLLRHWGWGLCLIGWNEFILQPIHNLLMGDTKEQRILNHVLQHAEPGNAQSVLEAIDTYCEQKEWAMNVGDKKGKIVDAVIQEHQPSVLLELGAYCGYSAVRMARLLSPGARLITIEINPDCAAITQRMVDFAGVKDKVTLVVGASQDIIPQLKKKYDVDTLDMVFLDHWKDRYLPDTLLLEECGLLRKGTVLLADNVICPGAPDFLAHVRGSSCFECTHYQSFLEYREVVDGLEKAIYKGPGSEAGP
# [4] = qHTS Validation Assay to Find Inhibitors of Chronic Active B-Cell Receptor Signaling (AID 485345); settings: ABC-DLBCL cells, chronic BCR signaling reporter; measured here: CBR control luciferase (viability counter)
# Procedure, shortened: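 TMD8 ABC-DLBCL cells stably carrying doxycycline-inducible IkappaBalpha–green luciferase fusion plus unfused red luciferase; compounds 46 uM to 3 nM, 4 h at 37C with doxycycline. Corrected green/red luminescence ratio normalized to 10 uM MG-132 and basal cell wells; curves fitted.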
# [5] = Nrf2 qHTS screen for inhibitors: Validation (AID 493153); settings: A549 ARE-Fluc reporter, 18-24 h; AC50: CellTiter-Fluor fluorescence read, measured here: cytotoxicity CellTiter-Fluor AC50; viability change: measured here: cytotoxicity max response
# Procedure, shortened: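 Dose-response validation uses reporter A549 cells with firefly luciferase under an antioxidant response element. Compounds stay on cells 18-24 h at 37°C, and luminescence indicates Nrf2-driven transcription.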
# [6] = target: Nicotinamide N-methyltransferase (Homo sapiens) (UniProt P40261); assay: Confirmatory Screen for Target Class Profiling of Small Molecule Inhibitors of Methyltransferases (AID 1745852); settings: MTase-Glo luminescence, SAH detection, recombinant enzyme; measured here: NNMT inhibition potency;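 further: inhibitor potency for blocking SAH production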
# UniProt P40261, sequence (P40261 whole entry, looked up): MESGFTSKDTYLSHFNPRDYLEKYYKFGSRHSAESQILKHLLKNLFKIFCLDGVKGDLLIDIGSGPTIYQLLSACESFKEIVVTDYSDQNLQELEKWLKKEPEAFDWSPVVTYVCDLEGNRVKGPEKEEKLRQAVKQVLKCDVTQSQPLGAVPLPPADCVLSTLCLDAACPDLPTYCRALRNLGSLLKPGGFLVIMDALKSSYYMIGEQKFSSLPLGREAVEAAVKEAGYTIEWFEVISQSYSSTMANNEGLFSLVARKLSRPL
# [7] = target: Phenylethanolamine N-methyltransferase (Homo sapiens) (UniProt P11086); assay: as above; settings: MTase-Glo luminescence, SAH detection, recombinant enzyme; measured here: PNMT inhibition potency
# UniProt P11086, sequence (P11086 whole entry, looked up): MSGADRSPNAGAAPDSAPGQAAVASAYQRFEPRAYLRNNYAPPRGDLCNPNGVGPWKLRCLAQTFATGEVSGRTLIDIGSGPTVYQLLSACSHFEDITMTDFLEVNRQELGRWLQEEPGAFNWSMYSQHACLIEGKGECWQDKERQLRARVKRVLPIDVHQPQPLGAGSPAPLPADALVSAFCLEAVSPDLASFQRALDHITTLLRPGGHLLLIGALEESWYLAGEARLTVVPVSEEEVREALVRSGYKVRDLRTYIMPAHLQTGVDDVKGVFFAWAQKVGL
# [8] = NCATS anti-infectives library activity on the primary C. elegans qHTS viability assay (AID 1745855); settings: C. elegans worm area imaging, day 7, measured here: worm number
# Procedure, shortened: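 Viability is taken from GFP fluorescence of PE254-GFP-FLuc C. elegans imaged by laser cytometry over 7 days. Ten L1 worms per well grow at 21 °C on TOP10 E. coli capsules with titrated compound; levamisole marks toxicity.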
# [9] = qHTS drug screen for cell cycle checkpoint inhibitors in PARPi-resistant BRCA-mutant ovarian cancer cell lines. (AID 1963452); settings: PEO1/OlaR viability, CellTiter-Glo luminescence, 96 h
# Procedure, shortened: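 PEO1, PEO4 and PEO1/OlaR ovarian cancer cells, 600 per well, exposed 96 h at 37C to a dilution series. Viability read by CellTiter-Glo luminescence, normalized to DMSO and empty wells; activity summarized as Z-AUC.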
# Tags describe the fitted curve by direction and shape.
structure (smiles),measurement,setting,value
Cc1ccc(NC(=O)N2CCc3c(c4ccccc4n3CC3CC3)C2)cc1,IC50,[1],"24.1 µM [falling, single point]"
Oc1ccc(C2CNCc3sccc32)cc1O (stereo not given),AC50,"[2]; measured here: green reporter channel AC50, mouse Pmp22 promoter in mouse Schwann cells","53.6 µM [falling, partial curve]"
same,AC50,"[2]; measured here: red reporter channel AC50, EF-alpha promoter control reporter in MSC80 mouse Schwann cells","67.5 µM [falling, partial curve]"
same,IC50,[3],"6.11 µM [rising, full curve]"
CN(C)[C@@H]1CCc2[nH]c3ccc(NC(=O)c4ccc(F)cc4)cc3c2C1,IC50,[1],"19.2 µM [falling, partial curve]"
NS(=O)(=O)c1cccc2c1c([N+](=O)[O-])cc1nc(O)c(O)nc12,AC50,[4],"29.1 µM [rising, single point]"
same,IC50,[3],"3.06 µM [falling, full curve]"
CCn1c(-c2nonc2N)nc2c(C#CC(C)(C)O)ncc(OCC3CCCNC3)c21 (stereo not given),IC50,[1],"24.1 µM [falling, single point]"
CC(C)c1nccn1CCCNC(=O)c1ccc(N2CCCC(CO)C2)nc1 (stereo not given),IC50,[1],"19.2 µM [falling, partial curve]"
Brc1c(Br)c(Br)c2[nH]cnc2c1Br,AC50,[4],"7.31 µM [falling, partial curve]"
same,viability change,[5],0.0472%
same,IC50,[3],"21.7 µM [falling, partial curve, poor fit]"
same,IC50,[6],"27.3 µM [falling, partial curve]"
same,IC50,[7],"24.3 µM [falling, partial curve]"
COc1c(O)cc2c(c1O)[C@@H]1O[C@H](CO)[C@@H](O)[C@H](O)[C@H]1OC2=O,IC50,[3],"1.49 µM [falling, full curve]"
same,AC50,[8],"1.45 µM [falling, partial curve, poor fit]"
CC[C@H](C)C(=O)O[C@H]1CCC=C2C=C[C@H](C)[C@H](CC[C@@H]3C[C@@H](O)CC(=O)O3)[C@H]21,AC50,[4],"14.6 µM [falling, single point]"
same,IC50,[3],"21.7 µM [falling, partial curve]"
same,AC50,[9]; measured here: PEO1 parental viability,"12.3 µM [falling, partial curve]"
same,AC50,[9]; measured here: PEO4 viability,"17.4 µM [falling, single point]"
COc1ncccc1-c1nccn2c(C3CN(Cc4ccccc4O)C3)ncc12,IC50,[1],"1.56 µM [falling, full curve]"
CN(C)CCCNc1nc(CN2CCN(C(c3ccc(Cl)cc3)c3ccc(Cl)cc3)CC2)nc2ccccc12,IC50,[1],"21.5 µM [falling, partial curve]"
same,IC50,[6],"24.1 µM [falling, partial curve]"
O=C(CCc1nnc2n(CCc3ccccc3)c(=O)c3ccccc3n12)N1CCN(C2CCCCC2)CC1,IC50,[1],"6.07 µM [falling, full curve]"
same,IC50,[6],"9.61 µM [falling, full curve]"
O=C(NCc1ccc(Oc2ccccc2)cc1)c1nc(-c2cc(Br)c(O)c(Br)c2)no1,IC50,[1],"17.1 µM [falling, partial curve]"
same,IC50,[6],"27.1 µM [falling, partial curve]"
COc1ccc(CC(=O)Nc2ccc3ncnc(N4CCCC4)c3c2)c(Cl)c1,IC50,[1],"5.41 µM [falling, full curve]"
same,IC50,[6],"21.5 µM [falling, single point]"
Cn1nccc1-c1cc2c(cn1)CN(Cc1ccncc1)CCN2,IC50,[1],"35 µM [falling, partial curve]"
Cc1c[nH]c2nccc(Oc3c(F)cc(Nc4cc(Cl)nc(N)n4)cc3F)c12,IC50,[1],"15.2 µM [falling, partial curve]"
same,IC50,[6],"24.1 µM [falling, partial curve, poor fit]"
COc1cc2nc(N3CCCC3)nc(NCCCCCN3CCCC3)c2cc1OC,IC50,[1],"8.57 µM [falling, partial curve]"
same,IC50,[6],"24.1 µM [falling, single point]"
CN1CCC(N2CC[C@H](c3nc4ccccc4[nH]3)C2)CC1,IC50,[1],"44.1 µM [falling, partial curve]"
same,IC50,[6],"39.3 µM [falling, partial curve, poor fit]"
O=C(O)/C=C/c1ccc(-c2ccc(O)c(C34CC5CC(CC(C5)C3)C4)c2)cc1,IC50,[1],"30.4 µM [falling, single point]"
same,IC50,[6],"24.1 µM [falling, partial curve]"
CNC(=O)c1ccccc1Nc1nc(Nc2ccc(N3CCNCC3)cc2)ncc1Cl,IC50,[1],"21.5 µM [falling, partial curve]"
same,IC50,[6],"21.5 µM [falling, partial curve]"
